# Test results taken from the BET-seq Pho4 binding data (Le et al. 2018).
# This is one part of the list. Values were computed here from the reads of four pooled replicates and scatter widely.
# Biological target: T1, Pho4 (S. cerevisiae) (UniProt P07270)
# T1 sequence: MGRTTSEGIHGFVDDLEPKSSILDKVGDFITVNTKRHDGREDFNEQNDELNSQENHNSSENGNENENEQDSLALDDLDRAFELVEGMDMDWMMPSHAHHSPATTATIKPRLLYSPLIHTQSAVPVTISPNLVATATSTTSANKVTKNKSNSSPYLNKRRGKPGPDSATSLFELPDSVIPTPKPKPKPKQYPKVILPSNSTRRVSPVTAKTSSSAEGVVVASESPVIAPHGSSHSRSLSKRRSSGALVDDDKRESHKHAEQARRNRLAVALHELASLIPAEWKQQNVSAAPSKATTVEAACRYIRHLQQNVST
# Assay: relative binding free energy (BET-seq); higher = weaker binding
# Details: reference: library average
row,Sequence,relative binding free energy [kcal/mol]
1,GTCGGCACGTGTGTAT,0.08
2,AACTTCACGTGGCGGG,0.27
3,GTTATCACGTGTAGTC,0.11
4,TGCTGCACGTGGGGGT,-0.18
5,TAGGACACGTGGAATG,0.14
6,CGGTGCACGTGAGGGA,0.2
7,AATGCCACGTGAGGTT,0.19
8,TGGGGCACGTGCATTA,-0.23
9,GGGCTCACGTGGGTCG,0.06
10,TTTATCACGTGCGTAA,0.15
11,CTGGTCACGTGTAGTG,0.03
12,GGGGTCACGTGGCAGT,0.04
13,GAGAGCACGTGGGATC,0.06
14,TTGGGCACGTGGTGGA,-0.1
15,TAGCGCACGTGTGTTT,0.13
16,AGCGTCACGTGGGGAC,-0.08
17,GGTCTCACGTGCTTTT,0.37
18,TTGCGCACGTGCGGTA,0
19,GGCGACACGTGCTGGT,0.04
20,ATGATCACGTGGAGTA,0.2
21,ATCTACACGTGTGAGG,0.18
22,TGGGTCACGTGATTGG,0.37
23,GCGTACACGTGGGGTT,-0.06
24,CTGGGCACGTGGGAAG,-0.1
25,TATCACACGTGGTAGT,-0.06

row,Sequence,relative binding free energy [kcal/mol]
1,GGATACACGTGAAAGT,0.44
2,TGTATCACGTGTGGTC,0.29
3,GCGGGCACGTGGTCAG,-0.22
4,GTAGTCACGTGAGTGA,0.3
5,GTGTGCACGTGTGAAT,0.12
6,GGTTACACGTGTTCAG,0.11
7,GAGTTCACGTGTTTAA,0.47
8,TAGAGCACGTGGGTCT,-0.24
9,AGTGACACGTGTTTAT,0.01
10,GGTATCACGTGTGCTG,0.11
11,GTTGTCACGTGGCCTT,-0.07
12,AAGGCCACGTGGGAGG,-0.21
13,GCCGTCACGTGAGGTT,0.3
14,GTTGTCACGTGAACTG,0.27
15,AAGTCCACGTGTAGGG,0.12
16,GGTAACACGTGTGGAT,-0.02
17,TAGCTCACGTGTGTGG,0.2
18,ATTATCACGTGGATCG,0.21
19,GGACTCACGTGAAGTG,0.3
20,AATTTCACGTGTGCTA,0.33
21,TGGTGCACGTGTTTAC,-0.12
22,TAATGCACGTGAGGTA,0.19
23,ACAGGCACGTGAGGTG,-0.03
24,CGGCTCACGTGAGGGG,0.29
25,TGAATCACGTGTGTAG,0.26

row,Sequence,relative binding free energy [kcal/mol]
1,AGTATCACGTGCATTG,0.09
2,AGTGCCACGTGAATTT,0.2
3,GTGAACACGTGATAGT,0.13
4,AATGGCACGTGTTAAA,0.02
5,TAGCGCACGTGAAGTG,0.06
6,CGGGTCACGTGCAATG,0.2
7,ATCATCACGTGGCTTG,0.19
8,TTTTGCACGTGAGGAA,0.18
9,TTGCGCACGTGTGATA,-0.1
10,CGAGTCACGTGGGGAA,0.02
11,TGTTGCACGTGCTATG,0
12,CTTTTCACGTGGCAGG,0.26
13,TCGTGCACGTGGTTAT,-0.14
14,GGACGCACGTGTGGAT,-0.15
15,ATGTTCACGTGGACGA,0.31
16,TTCGTCACGTGTTTGT,0.09
17,GGGGACACGTGTGTAT,0.12
18,GTAGTCACGTGTCTTT,0.08
19,TTTGACACGTGATGCA,0.06
20,TTTGTCACGTGGAGGA,0.12
21,GATTTCACGTGTCATG,0.37
22,TGTTTCACGTGAAAGG,0.31
23,GAGGACACGTGCAGTG,0.09
24,GTGTACACGTGATATA,0.01
25,TTTAGCACGTGTCTTT,-0.08

row,Sequence,relative binding free energy [kcal/mol]
1,ATGTTCACGTGTTTGA,0.23
2,TCGTGCACGTGGTTGC,-0.01
3,GAGGCCACGTGGGTTC,0
4,TGAGTCACGTGGTGTT,0.11
5,AGAGTCACGTGATTAT,0.24
6,TTCGGCACGTGAGTAT,0.12
7,CCGTGCACGTGTTGGT,0.07
8,GTAGGCACGTGGAATG,0
9,ATTGTCACGTGGCGCT,0.06
10,ATGGACACGTGAGCTG,0.18
11,CCGTACACGTGTGGGG,0.1
12,CGAGGCACGTGGAGTG,-0.22
13,ATGTGCACGTGTGGGG,0
14,TAAGGCACGTGCAATG,-0.01
15,TTACGCACGTGTTTAT,-0.12
16,CTCAGCACGTGGTTGT,-0.14
17,AGTTACACGTGGTTGA,0.01
18,CTAGTCACGTGTGTGG,0.1
19,AATTACACGTGGAGTT,0.06
20,GGTTACACGTGAGCGT,0.32
21,GTGTGCACGTGGTATA,-0.12
22,AATTGCACGTGGGGGT,-0.16
23,ATAGGCACGTGTGGGG,0
24,CTATTCACGTGTCGTG,0.25
25,TCGTACACGTGCGGGG,0.13

row,Sequence,relative binding free energy [kcal/mol]
1,CTCATCACGTGTGTGT,0.2
2,TCGAGCACGTGACGGT,0.06
3,GGAAACACGTGTGTAT,0.23
4,GTGGTCACGTGGAGTG,0.04
5,AAGGTCACGTGGGGTG,-0.04
6,TTTCGCACGTGTTCTT,-0.06
7,GGGTTCACGTGTATGC,0.27
8,TTCGCCACGTGTTTGG,-0.02
9,GCTATCACGTGCGGGG,0.09
10,GGGCCCACGTGGGAGG,-0.29
11,TATAGCACGTGTATTC,0.03
12,GTTAGCACGTGTGCGG,-0.06
13,TGTGACACGTGGGGAA,-0.12
14,ATGGACACGTGAGAGG,0.3
15,CTGTTCACGTGATGTG,0.18
16,TTGCACACGTGTAGTG,0.13
17,TAGTGCACGTGATGCG,0
18,ACGAGCACGTGTGATG,0.05
19,ATAATCACGTGGGAGT,0
20,TGCGTCACGTGAATTA,0.33
21,ATTAACACGTGGGGCT,-0.09
22,TTATTCACGTGATCTG,0.29
23,AATTGCACGTGAGGGC,0.17
24,TGCTTCACGTGGTCAT,0.3
25,TTGATCACGTGGGATA,0.09

row,Sequence,relative binding free energy [kcal/mol]
1,ATAGTCACGTGGATAA,0.02
2,TGGGCCACGTGCGGCG,-0.24
3,CTGTCCACGTGGGGTT,-0.23
4,AAGAGCACGTGAAGGT,0.08
5,GGTTTCACGTGTGGGG,0.45
6,GCTATCACGTGGTAGT,0.14
7,GTGTGCACGTGTACGA,0.1
8,CTGGTCACGTGGGGTT,-0.06
9,ATTCTCACGTGGTGTG,0.09
10,CGTTTCACGTGCGTAG,0.17
11,GAGGACACGTGAATGG,0.28
12,AAAATCACGTGTGTGT,0.16
13,GACGGCACGTGGCTGT,0.04
14,TTCGTCACGTGTTATG,0.21
15,TTATGCACGTGAGATG,0.16
16,GTAAACACGTGGGGGG,-0.04
17,TTGTCCACGTGTTCTG,0.05
18,TCTGACACGTGAGGTT,0.23
19,GTAGGCACGTGTATTC,0.31
20,TTGGGCACGTGTAAGA,0.05
21,AGCGGCACGTGTGTTA,0
